From PubChem BioAssay AID1030 (National Center for Advancing Translational Sciences (NCATS), 2008)
Among all 220,000 compounds or so, about 16,000 (7.3%) were called active. The shares of active, inactive and inconclusive entries below differ from those in the screen. The call rests on the fitted dose curve; in most records, active means well fitted inhibition curve with a large enough effect (not every such curve was filed as active); inconclusive means small, poorly fitted or top-dose-only effect, or another doubt; inactive means no such curve, though single readings can be large or run the other way. No potency is given beside an inconclusive call; the fits are too rough.

Biological target: Aldehyde dehydrogenase 1A1 (Homo sapiens) (UniProt P00352)
Assay: qHTS Assay for Inhibitors of Aldehyde Dehydrogenase 1 (ALDH1A1);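 on activity, negative = inhibition: plate controls were no enzyme wells and a reference inhibitor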
Settings: Purified ALDH1A1, NADH fluorescence, propionaldehyde substrate; series mostly up to 75.3 µM; activity, negative = inhibition: at the top concentration
Potency means the concentration at half of the fitted maximal effect; tags describe the fitted curve by direction and shape.

Sequence of UniProt P00352 (P00352 whole entry, looked up): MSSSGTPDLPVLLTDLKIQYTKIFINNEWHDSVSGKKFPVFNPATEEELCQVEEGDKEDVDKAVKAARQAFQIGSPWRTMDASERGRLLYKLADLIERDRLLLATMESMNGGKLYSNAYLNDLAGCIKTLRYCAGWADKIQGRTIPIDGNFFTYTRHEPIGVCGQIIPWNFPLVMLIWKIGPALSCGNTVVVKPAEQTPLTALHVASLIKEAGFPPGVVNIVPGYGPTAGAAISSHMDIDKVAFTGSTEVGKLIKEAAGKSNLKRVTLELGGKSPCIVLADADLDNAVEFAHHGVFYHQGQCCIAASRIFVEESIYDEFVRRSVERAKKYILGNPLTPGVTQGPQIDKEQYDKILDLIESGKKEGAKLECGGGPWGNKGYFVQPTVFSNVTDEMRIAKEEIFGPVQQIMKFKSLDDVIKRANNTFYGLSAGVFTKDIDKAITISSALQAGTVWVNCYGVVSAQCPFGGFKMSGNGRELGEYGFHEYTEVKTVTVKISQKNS

Compound | activity, negative = inhibition | Potency
O=C1OCCC1Sc1nnc(-c2ccc3c(c2)OCO3)o1 (stereo unspecified) | inactive: -5.5% | –
CCSc1cnn(-c2ccccc2)c(=O)c1SCC | – | inconclusive [inhibitor, single point]
O=C(CSc1c(Cl)cccc1Cl)N1CCC(c2nc3ccccc3s2)CC1 | – | inconclusive [inhibitor, single point]
CC(CC(=O)Nc1cccc(Cl)c1)c1ccccc1 (stereo unspecified) | – | inconclusive [inhibitor, single point]
COc1ccc(-n2c(C)cc(/C=C3\SC(=S)N(Cc4ccco4)C3=O)c2C)cc1 | – | active: 0.631 µM
COc1ccc(C2C(C(=O)N3CCN(c4ccccc4)CC3)c3ccccc3C(=O)N2C)cc1 (stereo unspecified) | – | active: 2.24 µM
CN(C)C=C1C(=O)c2ccccc2C1=O | – | inconclusive [inhibitor, single point]
Cc1nnc(N(C(=O)c2cnccn2)c2ccccc2)s1 | inactive: 10.3% | –
COCCn1c(=O)c(-c2cn(C)c3ccccc23)nc2cnc(Oc3ccccc3)nc21 | – | inconclusive [inhibitor, single point]
COc1ccc2cc(OC)c(C(=O)N3CCOCC3)cc2c1 | – | inconclusive [inhibitor, single point]
CCCCOC(=O)CCCc1ccc([N+](=O)[O-])cc1[N+](=O)[O-] | – | inconclusive [inhibitor, partial curve]
COC(=O)N1[C@H](C)C=C[C@]1(Cc1ccccc1)C(=O)NCc1ccc(C)o1 | – | inconclusive [inhibitor, single point]
CC1CN(C(=O)N2CCCCC2)CCN1C(=O)N1CCCCC1 (stereo unspecified) | inactive: -9.24% | –
COc1ccc(NC(=O)CN2CCN(S(=O)(=O)c3ccc(C(C)C)cc3)CC2)cc1OC | – | inconclusive [inhibitor, single point]
COc1cccc(NC(=O)N2CCN(c3ccc(C(F)(F)F)cn3)CC2)c1 | inactive: -1.61% | –
O=C(CC1Nc2ccccc2NC1=O)Nc1ccccc1NC(=O)CC1Nc2ccccc2NC1=O (stereo unspecified) | – | inconclusive [inhibitor, partial curve, poor fit]
CC(C)CNC(=O)c1ccccc1NC(=O)CN(c1ccccc1)S(=O)(=O)N(C)C | inactive: 5.15% | –
Cc1ccc2cc(C#N)c(NCCNC(=O)C3CCC3)nc2c1C | – | inconclusive [inhibitor, single point]
COc1cc(-c2nc3ccccn3c2NCC2CCCO2)ccc1O (stereo unspecified) | – | inconclusive [inhibitor, partial curve]
COc1cccc(OCc2nnc(SC)n2C)c1 | – | inconclusive [inhibitor, single point]
C/C(=N\Nc1ccc2nncn2n1)c1cccs1 | inactive: 15.9% | –
N/C(=N\OC(=O)COc1ccc2ccccc2c1)c1cccnc1 | – | inconclusive [inhibitor, single point]
C=CCOc1ccc(CNn2cn[nH]c2=S)cc1 | – | inconclusive [inhibitor, single point]

Compound | activity, negative = inhibition | Potency
CN(C)c1nnnn1-c1ccc(OC(F)(F)F)cc1 | inactive: 9.89% | –
CC1(C)CC(=O)C2=C(C1)OC1=C(C2)C(=O)CC(C)(C)C1 | – | active: 17.8 µM
O=C(CCC(=O)N(CC(=O)NC1CCCCC1)Cc1ccccc1)Nc1ccccn1 | inactive: -6.97% | –
COCc1nc2ccccc2n1Cc1ccccc1Br | – | inconclusive [inhibitor, single point]
O=C(COc1ccc(S(=O)(=O)NC2CCCCC2)cc1Cl)NCc1ccc2c(c1)OCO2 | inactive: -4.47% | –
Cc1cnc(-c2nnc(N(C)C(=O)C3CCCO3)s2)cn1 (stereo unspecified) | – | inconclusive [inhibitor, single point]
O=C(CC1NCCc2ccccc21)Nc1cccc(Cl)c1 (stereo unspecified) | inactive: 1.34% | –
CC1Nc2ccccc2C(=O)N1NS(=O)(=O)c1ccccc1 (stereo unspecified) | – | inconclusive [inhibitor, single point]
Cc1ccc(OCCn2cc(Br)c(=O)[nH]c2=O)cc1 | – | active: 20 µM
Cc1ccc(C)n1-c1ncn[nH]1 | – | inconclusive [inhibitor, partial curve]
Cc1cc(C)nc(N/N=C/c2ccccc2)n1 | – | active: 10 µM
COCCOC(=O)c1cc(C(=O)c2cc(F)ccc2O)coc1=N | – | inconclusive [inhibitor, partial curve]
COc1cccc(CNC(=O)c2cc3oc4ccccc4c3n2C)c1OC | – | inconclusive [inhibitor, partial curve]
CCOC(=O)CCCCC(=O)c1[nH]c(=O)[nH]c1CSc1nc2ccccc2[nH]1 | – | inconclusive [inhibitor, single point]
O=c1[nH]c(SCc2ccccc2F)nc2ccccc12 | – | inconclusive [inhibitor, single point]
CCOC(=O)c1ccc(-c2cccc(-c3cc(=O)oc4cc(OC)cc(OC)c34)c2)cc1 | – | inconclusive [inhibitor, single point]
NC[C@@H]1O[C@H](O[C@H]2[C@H](O)[C@@H](O[C@H]3[C@H](O)[C@H](N)C[C@H](N)[C@H]3O[C@@H]3O[C@H](CO)[C@@H](O)[C@H](O)[C@@H]3N)O[C@H]2CO)[C@@H](N)[C@H](O)[C@@H]1O | inactive: -4.67% [at 20.9 µM] | –
CCN(CC)S(=O)(=O)c1ccc(Cl)c(C(=O)NC(C)C(c2cccs2)N2CCCC2)c1 (stereo unspecified) | – | inconclusive [inhibitor, single point]
C#CCCCO/N=C1/C[C@@H](O)[C@@H](O)[C@@H]2[C@@H]3C(=O)N(c4cccc(Oc5ccccc5)c4)C(=O)[C@H]3CC[C@H]12 | inactive: 14.7% [at 13.5 µM] | –
Cc1cc(=O)[nH]c(SCc2cccc(Br)c2)n1 | inactive: -8.06% | –
O=C(c1cccs1)N1CCN(Cc2cccc([N+](=O)[O-])c2)CC1 | – | inconclusive [inhibitor, single point]
O=C(Nc1cccc(-c2cn3ccsc3n2)c1)c1ccccc1 | – | inconclusive [inhibitor, single point]
Cc1ccc(C)c(N2CCN(S(=O)(=O)c3cccc4cccnc34)CC2)c1 | – | inconclusive [inhibitor, single point]
